# Results reported in the supplement of paper PMC8728848.
# The other results are listed elsewhere or left out.
# B1: Siglec-9 (Homo sapiens), Q9Y336 (protein)
# chain: MLLLLLPLLWGRERAEGQTSKLLTMQSSVTVQEGLCVHVPCSFSYPSHGWIYPGPVVHGYWFREGANTDQDAPVATNNPARAVWEETRDRFHLLGDPHTKNCTLSIRDARRSDAGRYFFKMEKGSIKWNYKHHRLSVNVTALTHRPNILIPGTLESGCPQNLTCSVPWACEQGTPPMISWIGTSVSPLDPSTTRSSVLTLIPQPQDHGTSLTCQVTFPGASVTTNKTVHLNVSYPPQNLTMTVFQGDGTVSTVLGNGSSLSLPEGQSLRLVCAVDAVDSNPPARLSLSWRGLTLCPSQPSNPGVLELPWVHLRDAAEFTCRAQNPLGSQQVYLNVSLQSKATSGVTQGVVGGAGATALVFLSFCVIFVVVRSCRKKSARPAAGVGDTGIEDANAVRGSASQGPLTEPWAEDSPPDQPPPASARSSVGEGELQYASLSFQMVKPWDSRGQEATDTEYSEIKIHR
# Assays:
# Assay in all cases: glycan array binding signal (z-score within array); higher = stronger binding
# Details in all cases: glycan notation: IUPAC condensed, linker removed; mutation: R120K
# [1] = biological target: Fuc(a1-2)[GalNAc(b1-3)]Gal
# Outline: (§1)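 The binding signal is a Z-score computed within each array and averaged over linkers. Arrays of the same protein sequence at different concentrations or buffers were also averaged together. Data originate from 3228 arrays in the Consortium for Functional Glycomics database, kept only where the protein sequence was available.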
# [2] = biological target: Fuc(a1-3)GlcNAc
# Outline: as §1
# [3] = biological target: Fuc(a1-3)[Gal(b1-4)]Glc6S
# Outline: as §1
# [4] = biological target: Fuc(a1-3)[Gal(b1-4)]GlcNAc
# Outline: as §1
# [5] = biological target: Fuc(a1-3)[Gal(b1-4)]GlcNAc(b1-2)Man
# Outline: as §1
# [6] = biological target: Fuc(a1-3)[Gal(b1-4)]GlcNAc(b1-2)Man(a1-3)[Fuc(a1-3)[Gal(b1-4)]GlcNAc(b1-2)Man(a1-6)]Man(b1-4)GlcNAc(b1-4)GlcNAc
# Outline: as §1
# [7] = biological target: Fuc(a1-3)[Gal(b1-4)]GlcNAc(b1-2)Man(a1-3)[Fuc(a1-3)[Gal(b1-4)]GlcNAc(b1-2)Man(a1-6)]Man(b1-4)GlcNAc(b1-4)[Fuc(a1-6)]GlcNAc
# Outline: as §1
# [8] = biological target: Fuc(a1-3)[Gal(b1-4)]GlcNAc(b1-3)Gal(b1-3)[Fuc(a1-4)]GlcNAc
# Outline: as §1
# [9] = biological target: Fuc(a1-3)[Gal(b1-4)]GlcNAc(b1-3)Gal(b1-4)[Fuc(a1-3)]GlcNAc
# Outline: as §1
# [10] = biological target: Fuc(a1-3)[Gal(b1-4)]GlcNAc(b1-3)Gal(b1-4)[Fuc(a1-3)]GlcNAc(b1-3)Gal(b1-4)[Fuc(a1-3)]GlcNAc
# Outline: as §1
# [11] = biological target: Fuc(a1-3)[Gal(b1-4)]GlcNAc(b1-3)GalNAc
# Outline: as §1
# [12] = biological target: Fuc(a1-3)[Gal(b1-4)]GlcNAc(b1-6)GalNAc
# Outline: as §1
# [13] = biological target: Fuc(a1-3)[Gal(b1-4)]GlcNAc(b1-6)[Gal(b1-3)GlcNAc(b1-3)]Gal(b1-4)Glc
# Outline: as §1
# [14] = biological target: Fuc(a1-3)[Gal(b1-4)]GlcNAc6S
# Outline: as §1
# [15] = biological target: Fuc(a1-3)[Gal3S(b1-4)]Glc
# Outline: as §1
# [16] = biological target: Fuc(a1-3)[Gal3S(b1-4)]GlcNAc
# Outline: as §1
# [17] = biological target: Fuc(a1-3)[Gal3S(b1-4)]GlcNAc6S
# Outline: as §1
# [18] = biological target: Fuc(a1-3)[GalNAc(b1-4)]GlcNAc
# Outline: as §1
# [19] = biological target: Fuc(a1-3)[GalNAc(b1-4)]GlcNAc6S
# Outline: as §1
# [20] = biological target: Fuc(a1-4)GlcNAc
# Outline: as §1
# [21] = biological target: Fuc(b1-3)GlcNAc
# Outline: as §1
# [22] = biological target: Gal(a1-2)Gal
# Outline: as §1
# [23] = biological target: Gal(a1-3)Gal
# Outline: as §1
# [24] = biological target: Gal(a1-3)Gal(b1-3)GlcNAc
# Outline: as §1
# [25] = biological target: Gal(a1-3)Gal(b1-3)GlcNAc(b1-2)Man
# Outline: as §1
# [26] = biological target: Gal(a1-3)Gal(b1-3)GlcNAc(b1-2)Man(a1-3)[Gal(a1-3)Gal(b1-3)GlcNAc(b1-2)Man(a1-6)]Man(b1-4)GlcNAc(b1-4)GlcNAc
# Outline: as §1
# [27] = biological target: Gal(a1-3)Gal(b1-3)GlcNAc(b1-3)GalNAc
# Outline: as §1
# [28] = biological target: Gal(a1-3)Gal(b1-3)GlcNAc(b1-6)GalNAc
# Outline: as §1
# [29] = biological target: Gal(a1-3)Gal(b1-3)[Fuc(a1-4)]GlcNAc(b1-2)Man(a1-3)[Gal(a1-3)Gal(b1-3)[Fuc(a1-4)]GlcNAc(b1-2)Man(a1-6)]Man(b1-4)GlcNAc(b1-4)GlcNAc
# Outline: as §1
# [30] = biological target: Gal(a1-3)Gal(b1-4)Glc
# Outline: as §1
# [31] = biological target: Gal(a1-3)Gal(b1-4)GlcNAc
# Outline: as §1
# [32] = biological target: Gal(a1-3)Gal(b1-4)GlcNAc(b1-2)Man
# Outline: as §1
# [33] = biological target: Gal(a1-3)Gal(b1-4)GlcNAc(b1-2)Man(a1-3)[Gal(a1-3)Gal(b1-4)GlcNAc(b1-2)Man(a1-6)]Man(b1-4)GlcNAc(b1-4)GlcNAc
# Outline: as §1
# [34] = biological target: Gal(a1-3)Gal(b1-4)GlcNAc(b1-3)GalNAc
# Outline: as §1
# [35] = biological target: Gal(a1-3)Gal(b1-4)GlcNAc(b1-6)GalNAc
# Outline: as §1
# [36] = biological target: Gal(a1-3)Gal(b1-4)[Fuc(a1-3)]GlcNAc
# Outline: as §1
# [37] = biological target: Gal(a1-3)Gal(b1-4)[Fuc(a1-3)]GlcNAc(b1-2)Man(a1-3)[Gal(a1-3)Gal(b1-4)[Fuc(a1-3)]GlcNAc(b1-2)Man(a1-6)]Man(b1-4)GlcNAc(b1-4)GlcNAc
# Outline: as §1
binder,measurement,setting,value
B1,glycan array binding signal (z-score),[1],-0.476
same,glycan array binding signal (z-score),[2],-0.568
same,glycan array binding signal (z-score),[3],0.876
same,glycan array binding signal (z-score),[4],-0.448
same,glycan array binding signal (z-score),[5],0.069
same,glycan array binding signal (z-score),[6],-0.414
same,glycan array binding signal (z-score),[7],-0.043
same,glycan array binding signal (z-score),[8],-0.304
same,glycan array binding signal (z-score),[9],-0.109
same,glycan array binding signal (z-score),[10],-0.343
same,glycan array binding signal (z-score),[11],0.003
same,glycan array binding signal (z-score),[12],-0.181
same,glycan array binding signal (z-score),[13],-0.027
same,glycan array binding signal (z-score),[14],1.14
same,glycan array binding signal (z-score),[15],0.128
same,glycan array binding signal (z-score),[16],-0.316
same,glycan array binding signal (z-score),[17],-0.209
same,glycan array binding signal (z-score),[18],0.116
same,glycan array binding signal (z-score),[19],-0.298
same,glycan array binding signal (z-score),[20],2.96
same,glycan array binding signal (z-score),[21],-0.36
same,glycan array binding signal (z-score),[22],-0.017
same,glycan array binding signal (z-score),[23],0.392
same,glycan array binding signal (z-score),[24],1
same,glycan array binding signal (z-score),[25],0.513
same,glycan array binding signal (z-score),[26],0.099
same,glycan array binding signal (z-score),[27],-0.265
same,glycan array binding signal (z-score),[28],0.265
same,glycan array binding signal (z-score),[29],0.321
same,glycan array binding signal (z-score),[30],-0.308
same,glycan array binding signal (z-score),[31],-0.253
same,glycan array binding signal (z-score),[32],-0.44
same,glycan array binding signal (z-score),[33],-0.31
same,glycan array binding signal (z-score),[34],-0.013
same,glycan array binding signal (z-score),[35],-0.055
same,glycan array binding signal (z-score),[36],0.067
same,glycan array binding signal (z-score),[37],3.77
